From PubChem BioAssay AID360 (National Center for Advancing Translational Sciences (NCATS), 2006)
The whole screen tested about 48,000 compounds, of which about 550 (1.1%) were called active. Roughly 4% stayed inconclusive and do not appear here. Rule as the data show it: active = potency below about 15 µM; inconclusive = mostly about 16 µM to 33 µM; inactive = weaker than that. This is one part of the list.

Biological target: Lysosomal acid glucosylceramidase (Homo sapiens) (UniProt P04062)
Assay: Glucocerebrosidase;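 also: the screen sought inhibitors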
Conditions: purified enzyme, resorufin glucoside fluorescence (screen aimed at inhibitors), 20 min
How it was run: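 Normal human glucocerebrosidase (0.2 nM final) was assayed with resorufin β-D-glucopyranoside (30 uM final) in 50mM citric acid/KH2PO4, 10mM sodium taurocholate, 0.01% tween-20, pH 5.9. Compounds were titrated; fluorescence (Ex 548, Em 600) read after 20 min at RT.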
Potency is read from the fitted curve at half-maximal effect.

UniProt P04062, sequence (P04062 whole entry, looked up): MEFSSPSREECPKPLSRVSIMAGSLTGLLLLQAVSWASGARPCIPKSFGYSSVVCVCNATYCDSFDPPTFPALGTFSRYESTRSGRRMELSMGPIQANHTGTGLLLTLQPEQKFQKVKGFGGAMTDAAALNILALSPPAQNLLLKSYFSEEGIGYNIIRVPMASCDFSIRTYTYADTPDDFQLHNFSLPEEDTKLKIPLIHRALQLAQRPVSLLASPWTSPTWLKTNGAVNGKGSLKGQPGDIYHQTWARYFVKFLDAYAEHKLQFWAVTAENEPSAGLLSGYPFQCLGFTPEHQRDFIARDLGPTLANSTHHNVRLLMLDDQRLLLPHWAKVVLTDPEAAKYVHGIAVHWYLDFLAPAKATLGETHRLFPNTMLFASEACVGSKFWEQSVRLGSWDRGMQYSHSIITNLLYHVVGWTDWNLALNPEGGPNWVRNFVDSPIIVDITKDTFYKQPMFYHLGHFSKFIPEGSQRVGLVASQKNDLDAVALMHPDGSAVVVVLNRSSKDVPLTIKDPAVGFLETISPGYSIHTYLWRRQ

Potency, inactive:
Cc1ccc2[nH]c(=S)cc(C)c2c1 > 76.9 µM
Cc1nn(C(=O)c2cccnc2)c(C)c1C > 76.9 µM
Cc1cc(-c2nnc(SCC(=O)NC3CCCC3)o2)no1 > 76.9 µM
Cn1c(=O)c2c(nc(NCCCO)n2Cc2cccc(Br)c2)n(C)c1=O > 76.9 µM
O=C(COc1ccccc1)Nc1cccc(-c2nnc(-c3ccccc3)o2)c1 > 76.9 µM
COc1cccc(OCCOc2c(OC)cccc2OC)c1 > 76.9 µM
CCc1cccc2c(=O)c(C(=O)NCCN3CCOCC3)c[nH]c12 > 76.9 µM
O=C(CCn1c(=O)c2ccccc2n(CC(=O)NCCC2=CCCCC2)c1=O)NCc1ccco1 > 76.9 µM
CSCC[C@H](NC(=O)OC(C)(C)C)C(=O)N1CCC(C(=O)N[C@H](C(=O)O)C(C)C)CC1 > 76.9 µM
COc1cc(-c2nnc3sc(-c4ccccn4)nn23)cc(OC)c1OC > 76.9 µM
Cc1nc(-c2ccc(NC(=O)c3cccs3)cc2)cs1 > 76.9 µM
COc1ccc(C2CC(c3ccc(Cl)cc3)Nc3nc(NC(=O)c4ccco4)nn32)cc1 (stereo not drawn) > 76.9 µM
CC1=C(C(=O)OCc2ccc3c(c2)OCO3)C(c2ccc(F)cc2)NC(=O)N1 (stereo not drawn) > 76.9 µM
CCC(=O)c1ccc(OCC(O)CN2CCN(c3cccc(C(F)(F)F)c3)CC2)cc1 (stereo not drawn) > 76.9 µM
N#CCc1nc(CSc2nc3ccccc3o2)cs1 > 76.9 µM
O=C(NCCN1CCOCC1)c1ccc2c(c1)N(Cc1ccccc1)C(=O)CS2
O=C(NCc1ccc2c(c1)OCO2)C1CCN(S(=O)(=O)c2cccc3nsnc23)CC1 > 76.9 µM
CCN(CC)CCCN1C(=O)CSC1c1ccc2c(c1)OCO2 (stereo not drawn) > 76.9 µM
O=C(CCSCCC(=O)NCC1CCCO1)NCC1CCCO1 (stereo not drawn) > 76.9 µM
CCN(CC)CCCN1C(=O)C(=O)/C(=C(/O)c2ccc3c(c2)OCCO3)C1c1ccco1 (stereo not drawn) > 76.9 µM
Cn1c(=O)c(=O)n(C)c2cc(S(=O)(=O)N3CCOCC3)ccc21 > 76.9 µM
O=C(Nc1cccc(Cl)c1N1CCCC1)c1ccc(Br)o1 > 76.9 µM
COc1ccc2c(-c3ccccc3)cc(N3CCOCC3)nc2c1 > 76.9 µM
Cc1ccc(C)c(NC(=O)c2nnn(Cc3ccccc3)c2N)c1 > 76.9 µM
CCOC(=O)N1CCN(C(=O)CCC(=O)N2CCOc3ccc(C)cc32)CC1 > 76.9 µM
CCn1c(SCC(=O)N2CCOCC2)nnc1-c1cccs1 > 76.9 µM
CC(=O)Nc1ccc(S(=O)(=O)N[C@H](C(=O)O)C(C)C)cc1 > 76.9 µM
CC(C)(C)NC(=O)CSc1nnc(Cc2ccc3c(c2)OCO3)n1C1CCCCC1 > 76.9 µM
CCn1c(Cc2ccccc2)nnc1SCC(=O)Nc1ccc(S(N)(=O)=O)cc1 > 76.9 µM
Nc1c(N2CCOCC2)cc(Cl)c2nonc12 > 76.9 µM
O=C(CC(c1ccccc1)c1cc(Br)ccc1O)NCc1ccco1 (stereo not drawn)
Cc1cccc(N2CCN(c3cc(C)nc4nnnn34)CC2C)c1 (stereo not drawn) > 76.9 µM
COc1ccccc1N1CCN(C(=O)Nc2cccc(C)c2)CC1 > 76.9 µM
CC(=O)N1CC2(CC(=O)OC(C)C)CN(C(C)=O)CC(CC(=O)OC(C)C)(C1)C2=O > 76.9 µM
CCCc1c(O)nc(SCC(=O)NCCc2ccc(OC)c(OC)c2)[nH]c1=O > 76.9 µM
COC(=O)c1ccc(CSc2ncnc3sc(C)c(C)c23)o1 > 76.9 µM
Cc1cccc(N(CC(=O)NC2CCCCC2)C(=O)c2c(C)noc2C)c1 > 76.9 µM
Cc1nnc(NC(=O)C2COc3ccccc3O2)s1 (stereo not drawn)
OC(COCc1cccs1)CN1CCCCCC1 (stereo not drawn) > 76.9 µM
COc1ccc(NC(=O)Cc2nn(C)c(=O)c3ccccc23)c2ncccc12 > 76.9 µM
COCCCNC(=O)C1CCN(S(=O)(=O)c2c(C)noc2/C=C\c2ccc(OC)cc2)CC1 > 76.9 µM
O=C(COc1ncnc2ccccc12)NC1CCS(=O)(=O)C1 (stereo not drawn) > 76.9 µM
COc1cc(C(=O)Nc2ccc3c(c2)C(=O)N(CCC(=O)O)C3=O)cc(OC)c1OC > 76.9 µM
C=CCn1cnc2c(NCc3ccccc3)ncnc21 > 76.9 µM
COc1ccc(-c2nnc(SCC(=O)c3cc(C)n(Cc4cccs4)c3C)o2)cc1 > 76.9 µM
CCOC(=O)C(NC(=O)CC)(Nc1cc(C)on1)C(F)(F)F (stereo not drawn) > 76.9 µM
O=C1N2CCCc3cccc(c32)C12Nc1ccccc1S2 (stereo not drawn) > 76.9 µM
COC(=O)COc1ccc(Oc2cc(C)nc(SC)n2)nn1 > 76.9 µM
Cn1c(-c2ccc3ccccc3n2)nc2cnccc21 > 76.9 µM
Cc1nnc(SCC(=O)NC(=O)NC(C)(C)C)n1N > 76.9 µM
CC(=O)Nc1ccccc1N(C)S(=O)(=O)c1ccc(C)cc1 > 76.9 µM
Cn1nnnc1Sc1ncnc2scc(-c3ccccc3)c12 > 76.9 µM
Cc1cc2ncn(-c3nnnn3-c3ccccc3)c2cc1C > 76.9 µM
O=C(Nc1ccc2oc(=O)ccc2c1)c1cccnc1 > 76.9 µM
Cc1nc2nc(C)c(CCC(=O)NCc3ccc4c(c3)OCO4)c(C)n2n1 > 76.9 µM
CCC(=O)NCCN1CCN(C(=O)CC)CC1 > 76.9 µM
CN(C)C(CNC(=O)CSc1nnc(-c2ccco2)o1)c1ccccc1 (stereo not drawn) > 76.9 µM
COc1ccccc1-c1cc(C(=O)N2CCN(c3ccc(F)cc3)CC2)no1 > 76.9 µM
O=C(CSc1nnc(-c2ccccn2)n1-c1ccccc1)Nc1ccc2c(c1)OCO2 > 76.9 µM
O=S(=O)(CCc1nc2ccccc2o1)c1ccc(Cl)cc1 > 76.9 µM
Cc1ccc(OCCCC(=O)Nc2nncs2)cc1 > 76.9 µM
C1=C(c2cccc3ccccc23)N2CCN=C2S1 > 76.9 µM
CNC(=O)c1ccccc1NC(=O)c1ccc(C)c(S(=O)(=O)N2CCCCC2)c1 > 76.9 µM
CCCC(=O)Nc1nc(C(=O)OCC)cs1 > 76.9 µM
CCOc1ccc(N(CC(=O)NCc2ccccc2OC)S(C)(=O)=O)cc1 > 76.9 µM
CCOc1ccc(C(C)C)cc1S(=O)(=O)n1nc(C)cc1C > 76.9 µM
CCCCOc1ccc(CSc2nncn2N)cc1 > 76.9 µM
Cn1c(SCC(=O)N2CCCCC2)nnc1-c1ccc(S(=O)(=O)N2CCOCC2)cc1 > 76.9 µM
Cn1c(=O)oc2ccc(C(=O)CSc3nnnn3-c3ccccc3)cc21 > 76.9 µM
O=C(NCC(c1cccnc1)N1CCN(c2ccccc2)CC1)C1CCCCC1 (stereo not drawn) > 76.9 µM
COc1cc(S(=O)(=O)N2CCCCCC2)ccc1Cl > 76.9 µM
Cc1ccccc1-c1coc2cc(O)ccc2c1=O > 76.9 µM
Cc1cc(NC(=O)c2cccc(S(=O)(=O)N3CCCCCC3)c2)n(-c2ccccn2)n1 > 76.9 µM
COC(=O)Cc1cc(=O)n(-c2ccccc2)[nH]1 > 76.9 µM
CCC1Oc2ccc(C)cc2N(CC(=O)NCc2cccc(OC)c2)C1=O (stereo not drawn) > 76.9 µM
O=C(COc1cccc2ccccc12)N1CCN(c2ccccn2)CC1 > 76.9 µM
CCC1(C)Cc2c(c(=O)n(-c3ccccc3)c3ncnc(N)c23)CO1 (stereo not drawn) > 76.9 µM
Cn1c(=NC(=O)C2CCN(S(=O)(=O)c3cccs3)CC2)sc2ccccc21 > 76.9 µM
S=C(c1cccs1)N1CCCC1 > 76.9 µM
Cc1sc2nc3n(c(=O)c2c1C)NC(=O)CC3 > 76.9 µM
Cc1ccccc1CSc1nncn1N > 76.9 µM
Cc1ccccc1-n1c(N)cc(=O)[nH]c1=S > 76.9 µM
CCN(CC)CCCNC(=O)C1c2ccccc2C(=O)N1Cc1ccc(C)cc1 (stereo not drawn) > 76.9 µM
CC(Sc1nc2ccccc2c(=O)n1Cc1ccco1)C(=O)c1ccccc1 (stereo not drawn) > 76.9 µM
COC(=O)[C@@H](NC(=O)NC1CCN(Cc2ccccc2)CC1)C(C)C > 76.9 µM
CCOc1cccc(-c2nnc(SCC(=O)Nc3ccc(OC)c(OC)c3)n2N)c1 > 76.9 µM
O=C(CN1C(=O)C2CCCCN2C(=O)c2ccccc21)N1CCCc2ccccc21 (stereo not drawn) > 76.9 µM
COc1ccccc1-c1nnc(SCc2ccccn2)n1C > 76.9 µM
C=C(C)Cn1c(CCCNC(=O)CCC)nc2ccccc21 > 76.9 µM
O=C(c1ccc(Br)o1)N(c1ccc(Br)cc1)C1C=CS(=O)(=O)C1 (stereo not drawn)
Cc1ccnc(-n2c(CCN3C(=O)c4ccccc4C3=O)nc3ccccc3c2=O)c1 > 76.9 µM
CCOC(=O)c1ccccc1NC(=O)CCNC(=O)Cn1cnc2ccccc2c1=O > 76.9 µM
COc1ccc(-c2nsc3c(N4CCN(C(=O)c5ccco5)CC4)ncnc23)cc1 > 76.9 µM
